Here are results for 15 sequences from the supplement of paper PMC7826260.

The other results are listed elsewhere or left out. Viral Rep nickase domains cut single-stranded DNA in vitro (3 µM enzyme, 1 h, 37 °C); shown is the middle of each 90-letter strand. Values are log2 of uncut reads against the no-enzyme pool; strong cutting gives strongly negative numbers. There is no active / inactive call. Reads are scaled to the total; uncut strands gain when others are lost, and binding without cutting may add a little.

Assay in all cases: uncleaved DNA left, log2 of reads against the no-enzyme library (log2 ratio); higher = less cleavage (more negative = more Rep cleavage of the k-mer); sequences stand for … in CTCGTCCG…ACCGGAGA
Experiment [1] concerns T1, Rep nickase domain of Muscovy duck circovirus.
T1 sequence (protein, residues 1-111, tag omitted): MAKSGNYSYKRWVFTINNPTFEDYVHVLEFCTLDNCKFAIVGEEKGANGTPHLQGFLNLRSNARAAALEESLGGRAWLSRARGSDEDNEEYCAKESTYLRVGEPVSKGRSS
Here is the method:
(§1)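 A pool of 90-nt single-stranded DNAs with seven random bases just before the constant AC of the nick site (name = the seven bases) was cut by 3 µM recombinant His6-SUMO-tagged Rep nickase domain (300 nM DNA, 50 mM HEPES pH 8.0, 50 mM NaCl, 1 mM MnCl2, 1 h, 37 °C, three replicates). Uncut DNA was amplified and sequenced.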

Experiment [2] concerns T2, Rep nickase domain of banana bunchy top virus.
T2 sequence (protein, residues 1-94, tag omitted): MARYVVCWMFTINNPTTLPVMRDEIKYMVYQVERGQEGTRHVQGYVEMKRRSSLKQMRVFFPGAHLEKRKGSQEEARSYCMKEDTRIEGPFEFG
Here is the method: as §1
In experiment [3] the test system is T3, Rep nickase domain of cabbage leaf curl virus.
T3 sequence (protein, residues 1-116, tag omitted): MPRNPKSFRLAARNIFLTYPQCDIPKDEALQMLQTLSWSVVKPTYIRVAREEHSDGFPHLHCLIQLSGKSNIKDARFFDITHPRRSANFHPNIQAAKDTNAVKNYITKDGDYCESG
The procedure:
as §1

Experiment [4] concerns T4, Rep nickase domain of chickpea chlorotic dwarf virus.
T4 sequence (protein, residues 1-124, tag omitted): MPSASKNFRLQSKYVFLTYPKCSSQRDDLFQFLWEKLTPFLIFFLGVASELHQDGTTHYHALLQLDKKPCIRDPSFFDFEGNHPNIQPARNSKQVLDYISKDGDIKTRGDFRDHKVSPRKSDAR
The procedure: as §1
Experiment [5] deals with T5, Rep nickase domain of faba bean necrotic yellows virus.
T5 sequence (protein, residues 1-98, tag omitted): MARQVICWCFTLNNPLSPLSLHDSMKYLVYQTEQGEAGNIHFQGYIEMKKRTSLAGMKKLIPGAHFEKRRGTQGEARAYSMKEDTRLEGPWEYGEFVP
Here is the method:
as §1

Experiment [6] concerns T6, Rep nickase domain of maize striate mosaic virus.
T6 sequence (protein, residues 1-117, tag omitted): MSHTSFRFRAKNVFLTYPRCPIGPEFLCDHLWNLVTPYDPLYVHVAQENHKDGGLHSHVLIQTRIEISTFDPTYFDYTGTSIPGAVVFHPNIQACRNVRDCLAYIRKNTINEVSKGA
Here is the method: as §1
Experiment [7] concerns T7, Rep nickase domain of porcine circovirus 2.
T7 sequence (protein, residues 2-116, tag omitted): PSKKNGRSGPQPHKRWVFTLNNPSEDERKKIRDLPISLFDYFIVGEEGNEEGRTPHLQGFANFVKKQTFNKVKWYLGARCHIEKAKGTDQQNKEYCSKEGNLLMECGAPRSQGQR
The procedure: as §1
Experiment [8] concerns T8, Rep nickase domain of tomato golden mosaic virus.
T8 sequence (protein, residues 1-124, tag omitted): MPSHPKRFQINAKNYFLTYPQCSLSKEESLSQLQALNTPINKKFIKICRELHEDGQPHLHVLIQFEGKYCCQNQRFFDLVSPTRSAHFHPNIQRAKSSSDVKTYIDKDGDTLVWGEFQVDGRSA
The procedure:
as §1

Experiment [9] has as its system T9, Rep nickase domain of tomato yellow leaf curl virus.
T9 sequence (protein, residues 1-136, tag omitted): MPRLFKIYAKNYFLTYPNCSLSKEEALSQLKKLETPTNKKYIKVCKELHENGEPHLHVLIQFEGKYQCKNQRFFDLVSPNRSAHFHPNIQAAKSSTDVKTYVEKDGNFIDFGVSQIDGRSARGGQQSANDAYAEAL
Here is the method:
as §1

The test system of experiment [10] is T10, Rep nickase domain of wheat dwarf virus.
T10 sequence (protein, residues 1-137, tag omitted): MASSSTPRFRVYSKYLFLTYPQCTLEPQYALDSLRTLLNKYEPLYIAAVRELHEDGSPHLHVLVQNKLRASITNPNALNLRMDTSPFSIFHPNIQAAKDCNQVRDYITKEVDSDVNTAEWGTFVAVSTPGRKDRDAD
Here is the method:
as §1

For the sequence CCGACTA, the “uncleaved DNA left (log2)” value in [1] was -0.031; in [2], -0.076; in experiment [3], -0.135; in experiment [4] it was 0.18; in [5], -0.0251; in experiment [6], 1.04. Moreover, the “uncleaved DNA left (log2)” value was -0.0306 in experiment [7], -0.0641 in experiment [8], -0.201 in experiment [9] and -0.00117 in experiment [10].
In the case of GAGAGCG, the “uncleaved DNA left (log2)” value is -0.018 in experiment [1]; 0.0421 in experiment [2]; -0.584 in [3]; -0.387 in experiment [4]; 0.0647 in experiment [5]; -0.995 in experiment [6]. The “uncleaved DNA left (log2)” value in [7] was 0.221; in [8], 0.0326; in [9], 0.0733; in experiment [10] it was -0.0343.
For AAGGGGC, the “uncleaved DNA left (log2)” value in [1] is -0.00526; in [2], -0.114; in experiment [3], 0.123; in [4], 0.647; in experiment [5] it was -0.0619; in experiment [6], 0.208. Also, the “uncleaved DNA left (log2)” value was 0.0978 in [7], -0.0791 in [8], -0.0163 in experiment [9] and 0.0294 in [10].
On to ACGATAA, for which the “uncleaved DNA left (log2)” value is 0.05 in experiment [1]; -0.0145 in [2]; -0.212 in experiment [3]; -0.138 in [4]; 0.114 in experiment [5]; -0.238 in experiment [6]. The “uncleaved DNA left (log2)” value was 0.131 in experiment [7], -0.00704 in [8], -0.0589 in experiment [9] and -0.0805 in [10].
Consider GGTATCT, for which the “uncleaved DNA left (log2)” value in experiment [1] is 0.0461; in [2] it was 0.0977; in [3], 0.503; in [4] it was 0.936; in [5] it was -0.00941; in [6] it was 1.81. Moreover, the “uncleaved DNA left (log2)” value in [7] is -0.176; in experiment [8], 0.0202; in experiment [9] it was 0.0657; in experiment [10] it was 0.0784.
On to TCCATGT, for which the “uncleaved DNA left (log2)” value in [1] was -0.161; in [2], -0.118; in [3], -0.134; in [4], -0.405; in experiment [5], -0.121; in experiment [6], -0.996. In addition, the “uncleaved DNA left (log2)” value in experiment [7] was -0.0866; in experiment [8], -0.0685; in experiment [9], -0.0391; in experiment [10], -0.176.
Regarding CAAGGGA, the “uncleaved DNA left (log2)” value in experiment [1] came out at 0.159; in experiment [2], 0.07; in [3], 0.35; in experiment [4], 0.908; in [5], 0.0578; in experiment [6], 0.706. Further, the “uncleaved DNA left (log2)” value stood at 0.233 in experiment [7], 0.125 in experiment [8], 0.0924 in [9] and 0.028 in [10].
For the sequence TTGTGGA, the “uncleaved DNA left (log2)” value in [1] was 0.0279; in [2], -0.0741; in experiment [3], -0.126; in [4], -0.32; in [5], -0.012; in experiment [6], -0.784. Besides, the “uncleaved DNA left (log2)” value is 0.0418 in experiment [7], -0.0758 in [8], -0.0383 in [9] and -0.00317 in experiment [10].
Take GAAAAAG: the “uncleaved DNA left (log2)” value in [1] was 0.0186; in experiment [2], 0.0271; in [3], -0.588; in [4], -0.52; in [5] it was 0.0868; in [6] it was -0.964. The “uncleaved DNA left (log2)” value was 0.191 in experiment [7], 0.0708 in experiment [8], -0.0148 in experiment [9] and -0.0764 in experiment [10].
For the sequence ATCTAAC, the “uncleaved DNA left (log2)” value in experiment [1] is 0.0623; in experiment [2] it was 0.00172; in experiment [3], -0.274; in [4], -1.6; in experiment [5], 0.0175; in experiment [6] it was -0.852. For the same sequence, the “uncleaved DNA left (log2)” value in experiment [7] is 0.00661; in experiment [8], 0.03; in [9], -0.0501; in experiment [10], -0.0102.
For the sequence GATATTC, the “uncleaved DNA left (log2)” value in experiment [1] came out at 0.117; in [2], 0.0551; in experiment [3] it was 0.481; in [4], 0.955; in [5] it was 0.122; in experiment [6] it was 1.28. Besides, the “uncleaved DNA left (log2)” value amounted to 0.185 in experiment [7], 0.0537 in experiment [8], 0.0541 in [9] and 0.104 in experiment [10].
Take TGGATCA: the “uncleaved DNA left (log2)” value in experiment [1] is 0.0597; in [2], 0.13; in experiment [3], 0.586; in experiment [4], 1.12; in [5] it was -0.0193; in experiment [6], 1.55. Also, the “uncleaved DNA left (log2)” value was 0.0999 in experiment [7], -0.0195 in experiment [8], 0.0946 in experiment [9] and 0.136 in experiment [10].
For the sequence GGGGGGG, the “uncleaved DNA left (log2)” value in [1] is -0.0311; in experiment [2], -0.078; in experiment [3], 0.331; in experiment [4] it was 0.877; in experiment [5], 0.0213; in [6] it was 1.32. The “uncleaved DNA left (log2)” value in experiment [7] is 0.0185; in experiment [8], 0.0618; in experiment [9], -0.0988; in [10], -0.0423.
Regarding CGGTTAT, the “uncleaved DNA left (log2)” value in [1] was 0.0795; in experiment [2], -0.0507; in [3] it was 0.267; in [4] it was 0.458; in experiment [5], -0.0308; in [6], 0.773. The “uncleaved DNA left (log2)” value was -0.976 in [7], 0.0219 in experiment [8], -0.0294 in [9] and -0.0338 in [10].
With GCAAGGG, the “uncleaved DNA left (log2)” value was -0.0871 in [1]; 0.0364 in experiment [2]; -0.13 in experiment [3]; 0.0771 in [4]; 0.0165 in [5]; -0.549 in [6]. Also, the “uncleaved DNA left (log2)” value is 0.186 in experiment [7], 0.0987 in experiment [8], 0.00649 in [9] and -0.0235 in experiment [10].
